Assay results from patent US10391098B2, “Antisense antibacterial compounds and methods” (priority 2014, dated 2019).
Where two headings read alike, the source gives them in different places. {(RXR)4XB} = cell-penetrating peptide (R arginine, X 6-aminohexanoic acid, B beta-alanine), conjugated via its C-terminal beta-alanine linked through a pip-PDA moiety; {TEG} = triethylene glycol end group (as defined in the publication); {Acetyl} = acetyl cap

Key:
[1] = test system: multi-drug-resistant strain of A. baumannii (AYE); test: Colony-forming units at 24 hours, PPMO alone or combined with antibiotic; conditions: for effect of antibiotic on bacterial growth (CFUs): colistin 0.25 μg/ml, meropenem 0.5 μg/ml or tobramycin 2 μg/ml, alone or with control PPMO
Protocol: (§1) Synergy Studies. […] Calculated values less than 1 indicated synergy.
A cell-penetrating peptide-conjugated phosphorodiamidate morpholino oligomer (PPMO) targeted against the A. baumannii acpP gene was prepared and its efficacy was evaluated in vitro against a multi-drug-resistant strain of A. baumannii (AYE).
The acpP-targeted PPMO#7 (2 μM) was added to bacterial cultures either alone or in combination with colistin (0.25 μg/ml), meropenem (0.5 μg/ml), or tobramycin (2 μg/ml). PPMO scramble control (2 μM), colistin (0.25 μg/ml), meropenem (0.5 μg/ml), and tobramycin (2 μg/ml) were added to bacterial cultures separately or in various combinations. Colony-forming units (CFUs) were counted at 24 hours.

[2] = test system: multi-drug-resistant strain of E. coli (A15070834 / AIS070834); test: MIC of classic antibiotics with added PPMO (microdilution / checkerboard); conditions: for MIC: Escherichia coli
Protocol: Minimal Inhibitory Concentration Assays.
as §1
(§2) To determine whether the combination of active PPMOs and traditional antibiotics were additive or synergistic in their effects, checkerboard MIC assays were performed. The multidrug resistant E. coli AIS070834 was incubated with increasing concentrations of ftsZ PPMO (PPMO#46) or scrambled (Scr) PPMO (Scr-1) and increasing concentrations of either colistin, meropenem or tobramycin.

[3] = test system: multi-drug-resistant strain of E. coli (A15070834); test: Colony-forming units (viable cells) at 24 hours, PPMO alone or combined with antibiotic
Protocol: as §1
A cell-penetrating peptide-conjugated phosphorodiamidate morpholino oligomer (PPMO) targeted against the E. coli acpP gene was prepared and its efficacy was evaluated in vitro against a multi-drug-resistant strain of E. coli (A15070834).
The acpP-targeted PPMO (1 μM) was added to bacterial cultures either alone or in combination with tobramycin (2 μg/ml). PPMO scramble control (1 μM), peptide control (1 μM), and tobramycin (2 μg/ml) were added to bacterial cultures separately or in various combinations. Colony-forming units (CFUs) were counted at 24 hours.
as §2

[4] = test system: A. baumannii strains AYE and AB0057; test: Kinetic minimal bactericidal concentration (MBC) viability assay; conditions: at 24 hours, both strains
Protocol: Minimal Bactericidal Concentration Assays.
At 24 hours, the acpP-targeted PPMO (PPMO#7) was bactericidal and below the limit of detection at PPMO concentrations of >4 μM in both strains tested (FIGS. 10B-10C). A PPMO with a scrambled oligo sequence linked to the same peptide (Scr-(RXR)4) had no effect on any strain (FIG. 10A-10C).

[5] = PPMO 2 μM + colistin 0.25 μg/ml, 24 hours

## colistin [reference compound]
[1]; 24 hours
  effect of antibiotic on bacterial growth (CFUs): did not have this significant of an effect
[2]; without ftsZ PPMO, FIG. 14A
  MIC of colistin: 0.5 mg/L

## PPMO#2: acpP PPMO CTTCGATAGTG; 5' TEG, 3' (RXR)4XB (all phosphorodiamidate morpholino (PMO), 5' {TEG}, 3' {(RXR)4XB}; further chemistry not given here)
[3]; PPMO 1 μM + tobramycin 2 μg/ml, 24 hours
  reduction of bacterial growth (CFUs) relative to controls, in combination with tobramycin: over 4 logs
[3]; PPMO 1 μM alone, 24 hours
  reduction of bacterial growth (CFUs) relative to scramble PPMO and peptide controls: about 1 log

## PPMO#7: acpP PPMO ATATCGCTCAC; 5' TEG, 3' (RXR)4XB (all phosphorodiamidate morpholino (PMO), 5' {TEG}, 3' {(RXR)4XB}; further chemistry not given here)
[4]
  PPMO concentrations that were bactericidal and below the limit of detection: > 4 µM
[1]; [5]
  additional reduction of bacterial growth relative to acpP-targeted PPMO alone, in combination with colistin: ~3 logs
  bacterial growth (CFUs) in combination with colistin: undetectable levels
[1]; PPMO 2 μM + meropenem 0.5 μg/ml, 24 hours
  additional reduction of bacterial growth relative to acpP-targeted PPMO alone, in combination with meropenem: ~2 logs
[1]; PPMO 2 μM + tobramycin 2 μg/ml, 24 hours
  additional reduction of bacterial growth relative to acpP-targeted PPMO alone, in combination with tobramycin: ~1 log
[1]; all antibiotics tested (colistin, meropenem, tobramycin)
  reduction in CFU/ml when PPMO was combined with the antibiotic compared to either the PPMO or antibiotic alone: at least 1 log

## PPMO#1: acpP PPMO CTTCGATAGTG; 5' (RXR)4XB, 3' acetyl (all phosphorodiamidate morpholino (PMO), 5' {(RXR)4XB}, 3' {Acetyl}; further chemistry not given here)
[2]; FIGS. 12A-12F
  effect of PPMO on MIC of colistin, meropenem and tobramycin: significantly reduced the MIC
[2]; concentration-dependent, FIG. 2B-2C
  effect of increasing amounts of PPMO on MIC of tobramycin: significantly decreased

## C[C@@H](O)[C@H]1C(=O)N2C(C(=O)O)=C(S[C@@H]3CN[C@H](C(=O)N(C)C)C3)[C@H](C)[C@H]12 [meropenem, reference compound]
[1]; 24 hours
  effect of antibiotic on bacterial growth (CFUs): did not have this significant of an effect
[2]; read-out: MIC of meropenem
  MIC: 12 mg/L

## NC[C@H]1O[C@H](O[C@H]2[C@H](O)[C@@H](O[C@H]3O[C@H](CO)[C@@H](O)[C@H](N)[C@H]3O)[C@H](N)C[C@@H]2N)[C@H](N)C[C@@H]1O [tobramycin, reference compound]
[1]; 24 hours
  effect of antibiotic on bacterial growth (CFUs): did not have this significant of an effect
[2]; read-out: MIC of tobramycin
  MIC: 270 mg/L
[3]; tobramycin 2 μg/ml, PPMO scramble control 1 μM, alone or in combination, 24 hours
  effect on bacterial growth (CFUs): no significant effect

## PPMO#46: Table 3B: pryA PPMO GACTTAATCAA; 5' TEG, 3' (RXR)4XB; called ftsZ PPMO in Example 7 (all phosphorodiamidate morpholino (PMO), 5' {TEG}, 3' {(RXR)4XB}; further chemistry not given here)
[2]; 2 μM PPMO
  MIC of tobramycin in the presence of ftsZ PPMO: almost an undetectable level
[2]; 2 μM of ftsZ PPMO
  MIC of colistin in the presence of ftsZ PPMO: 0.05 mg/L
[2]; 4 μM ftsZ PPMO
  MIC of meropenem in the presence of ftsZ PPMO: 2 mg/L
[3]; all antibiotics tested, 24-h cultures
  reduction in CFU/ml when ftsZ PPMO was combined with the antibiotic compared to either the PPMO or antibiotic alone: at least 4 logs
